# B1: recombinant soluble α4β7 heterodimer (complex)
# chain 1: not shown
# chain 2: ELDAKIPSTGDATEWRNPHLSMLGSCQPAPSCQKCILSHPSCAWCKQLNFTASGEAEARRCARREELLARGCPLEELEEPRGQQEVLQDQPLSQGARGEGATQLAPQRVRVTLRPGEPQQLQVRFLRAEGYPVDLYYLMDLSYSMKDDLERVRQLGHALLVRLQEVTHSVRIGFGSFVDKTVLPFVSTVPSKLRHPCPTRLERCQSPFSFHHVLSLTGDAQAFEREVGRQSVSGNLDSPEGGFDAILQAALCQEQIGWRNVSRLLVFTSDDTFHTAGDGKLGGIFMPSDGHCHLDSNGLYSRSTEFDYPSVGQVAQALSAANIQPIFAVTSAALPVYQELSKLIPKSAVGELSEDSSNVVQLIMDAYNSLSSTVTLEHSSLPPGVHISYESQCEGPEKREGKAEDRGQCNHVRINQTVTFWVSLQATHCLPEPHLLRLRALGFSEELIVELHTLCDCNCSDTQPQAPHCSDGQGHLQCGVCSCAPGRLGRLCECSVAELSSPDLESGCRAPNGTGPLCSGKGHCQCGRCSCSGQSSGHLCECDDASCERHEGILCGGFGRCQCGVCHCHANRTGRACECSGDMDSCISPEGGLCSGHGRCKCNRCQCLDGYYGALCDQCPGCKTPCERHRDCAECGAFRTGPLATNCSTACAHTNVTLALAPILDDGWCKERTLDNQLFFFLVEDDARGTVVLRVRPQEKGADH
# modifications: disulfide bond joining the acid-base clasp | disulfide bond joining the acid-base clasp
# Biological target: cyclic V2 peptide derived from C06980v0c22 (subtype C) (HIV-1 C06980v0c22 (subtype C), cyclic; amino-terminal biotin)
# Assay: SPR; 1 mM MnCl2
binder,measurement,value
B1,Kd,1.58 nM

# From PMC6130882 (2018)
